Test results reported in PMC7053169.
Results are given in words; binding and its absence hold for the method and conditions named. In cells and extracts the contact can be indirect. Some results given as binding are weak or reduced against the parent protein; the word gives no strength. For some assays here: Tags and fused reporters may be left off the sequences shown.

Protein sequences, listed by entry. Tags and fused reporters are not part of them. Residues count along the entry.
UniProt P26660, residues 814-1030: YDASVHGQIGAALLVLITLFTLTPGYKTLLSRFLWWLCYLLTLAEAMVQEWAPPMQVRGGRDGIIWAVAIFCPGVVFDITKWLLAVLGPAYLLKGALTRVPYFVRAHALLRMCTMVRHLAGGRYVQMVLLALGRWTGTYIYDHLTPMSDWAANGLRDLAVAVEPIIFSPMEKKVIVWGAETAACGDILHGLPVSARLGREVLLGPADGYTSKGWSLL
UniProt Q9BY78: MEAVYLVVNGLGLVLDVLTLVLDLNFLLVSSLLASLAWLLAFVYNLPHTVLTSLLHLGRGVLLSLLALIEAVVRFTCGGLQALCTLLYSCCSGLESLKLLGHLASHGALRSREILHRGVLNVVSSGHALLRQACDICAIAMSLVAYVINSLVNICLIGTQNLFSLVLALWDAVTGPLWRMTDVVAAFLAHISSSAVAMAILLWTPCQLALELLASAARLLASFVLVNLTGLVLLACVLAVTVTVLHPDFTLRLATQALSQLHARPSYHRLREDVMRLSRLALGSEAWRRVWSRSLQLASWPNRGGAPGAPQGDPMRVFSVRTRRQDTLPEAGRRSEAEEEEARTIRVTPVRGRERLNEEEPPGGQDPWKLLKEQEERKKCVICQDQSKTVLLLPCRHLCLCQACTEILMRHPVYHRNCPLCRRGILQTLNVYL
UniProt Q8N4F7: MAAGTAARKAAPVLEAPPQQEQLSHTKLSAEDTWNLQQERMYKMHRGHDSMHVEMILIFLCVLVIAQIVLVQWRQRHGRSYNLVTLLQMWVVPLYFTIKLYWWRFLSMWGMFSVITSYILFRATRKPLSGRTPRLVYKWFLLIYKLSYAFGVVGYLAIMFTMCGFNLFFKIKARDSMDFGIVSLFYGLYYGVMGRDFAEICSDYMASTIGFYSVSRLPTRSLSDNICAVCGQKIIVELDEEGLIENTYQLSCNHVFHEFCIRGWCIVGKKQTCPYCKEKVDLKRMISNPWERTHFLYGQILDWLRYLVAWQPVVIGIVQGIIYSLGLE
UniProt Q86TM6: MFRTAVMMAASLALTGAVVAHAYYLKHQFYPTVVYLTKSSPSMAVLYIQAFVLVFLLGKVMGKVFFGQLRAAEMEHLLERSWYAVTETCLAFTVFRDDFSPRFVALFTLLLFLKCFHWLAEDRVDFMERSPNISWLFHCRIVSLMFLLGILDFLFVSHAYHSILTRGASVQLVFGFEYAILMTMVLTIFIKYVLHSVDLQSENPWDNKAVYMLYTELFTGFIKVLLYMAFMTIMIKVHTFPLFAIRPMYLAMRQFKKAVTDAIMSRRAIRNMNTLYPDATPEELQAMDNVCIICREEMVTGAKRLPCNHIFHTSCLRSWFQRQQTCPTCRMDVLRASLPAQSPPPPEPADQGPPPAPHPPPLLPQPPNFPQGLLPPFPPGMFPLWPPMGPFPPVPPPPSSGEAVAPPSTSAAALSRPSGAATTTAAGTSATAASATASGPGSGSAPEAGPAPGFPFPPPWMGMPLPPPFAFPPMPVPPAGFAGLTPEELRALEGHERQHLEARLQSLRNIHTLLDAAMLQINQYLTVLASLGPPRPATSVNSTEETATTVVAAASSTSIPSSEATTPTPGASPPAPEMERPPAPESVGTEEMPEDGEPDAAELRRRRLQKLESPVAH
UniProt Q96DX4, residues 17-576: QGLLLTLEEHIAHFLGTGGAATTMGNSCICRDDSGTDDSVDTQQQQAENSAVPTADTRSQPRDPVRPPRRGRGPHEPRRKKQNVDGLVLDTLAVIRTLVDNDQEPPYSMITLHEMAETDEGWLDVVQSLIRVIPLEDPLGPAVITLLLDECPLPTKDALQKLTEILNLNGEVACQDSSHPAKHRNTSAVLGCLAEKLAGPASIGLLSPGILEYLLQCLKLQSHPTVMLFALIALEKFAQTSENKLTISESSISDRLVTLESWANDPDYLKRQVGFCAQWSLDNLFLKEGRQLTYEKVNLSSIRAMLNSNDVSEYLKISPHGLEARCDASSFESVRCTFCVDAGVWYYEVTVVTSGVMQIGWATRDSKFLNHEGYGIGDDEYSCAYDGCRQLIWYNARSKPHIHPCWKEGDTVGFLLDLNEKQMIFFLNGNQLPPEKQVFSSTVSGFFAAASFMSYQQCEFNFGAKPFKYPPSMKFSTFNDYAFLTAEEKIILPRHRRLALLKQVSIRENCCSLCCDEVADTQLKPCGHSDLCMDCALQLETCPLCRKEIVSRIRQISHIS

B1: MARCH8 (endogenous) (enzyme, UniProt Q5T0T0 1-291)
chain: MSMPLHQISAIPSQDAISARVYRSKTKEKEREEQNEKTLGHFMSHSSNISKAGSPPSASAPAPVSSFSRTSITPSSQDICRICHCEGDDESPLITPCHCTGSLHFVHQACLQQWIKSSDTRCCELCKYEFIMETKLKPLRKWEKLQMTSSERRKIMCSVTFHVIAITCVVWSLYVLIDRTAEEIKQGQATGILEWPFWTKLVVVAIGFTGGLLFMYVQCKVYVQLWKRLKAYNRVIYVQNCPETSKKNIFEKSPLTEPNFENKHGYGICHSDTNSSCCTEPEDTGAEIIHV
B2: GLuc1-MARCH8 (enzyme, UniProt Q5T0T0 1-291)
chain: MSMPLHQISAIPSQDAISARVYRSKTKEKEREEQNEKTLGHFMSHSSNISKAGSPPSASAPAPVSSFSRTSITPSSQDICRICHCEGDDESPLITPCHCTGSLHFVHQACLQQWIKSSDTRCCELCKYEFIMETKLKPLRKWEKLQMTSSERRKIMCSVTFHVIAITCVVWSLYVLIDRTAEEIKQGQATGILEWPFWTKLVVVAIGFTGGLLFMYVQCKVYVQLWKRLKAYNRVIYVQNCPETSKKNIFEKSPLTEPNFENKHGYGICHSDTNSSCCTEPEDTGAEIIHV
B3: GLuc1-RNF24 (enzyme, UniProt Q9Y225 1-148)
chain: MSSDFPHYNFRMPNIGFQNLPLNIYIVVFGTAIFVFILSLLFCCYLIRLRHQAHKEFYAYKQVILKEKVKELNLHELCAVCLEDFKPRDELGICPCKHAFHRKCLIKWLEVRKVCPLCNMPVLQLAQLHSKQDRGPPQGPLPGAENIV
B4: GLuc1-RNF139 (enzyme, UniProt Q8WU17 1-664)
chain: MAAVGPPQQQVRMAHQQVWAALEVALRVPCLYIIDAIFNSYPDSSQSRFCIVLQIFLRLFGVFASSIVLILSQRSLFKFYTYSSAFLLAATSVLVNYYASLHIDFYGAYNTSAFGIELLPRKGPSLWMALIVLQLTFGIGYVTLLQIHSIYSQLIILDLLVPVIGLITELPLHIRETLLFTSSLILTLNTVFVLAVKLKWFYYSTRYVYLLVRHMYRIYGLQLLMEDTWKRIRFPDILRVFWLTRVTAQATVLMYILRMANETDSFFISWDDFWDLICNLIISGCDSTLTVLGMSAVISSVAHYLGLGILAFIGSTEEDDRRLGFVAPVLFFILALQTGLSGLRPEERLIRLSRNMCLLLTAVLHFIHGMTDPVLMSLSASHVSSFRRHFPVLFVSACLFILPVLLSYVLWHHYALNTWLFAVTAFCVELCLKVIVSLTVYTLFMIDGYYNVLWEKLDDYVYYVRSTGSIIEFIFGVVMFGNGAYTMMFESGSKIRAFMMCLHAYFNIYLQAKNGWKTFMNRRTAVKKINSLPEIKGSRLQEINDVCAICYHEFTTSARITPCNHYFHALCLRKWLYIQDTCPMCHQKVYIEDDIKDNSNVSNNNGFIPPNETPEEAVREAAAESDRELNEDDSTDCDDDVQRERNGVIQHTGAAAEEFNDDTD
B5: GLuc1-CGRRF1 (enzyme, UniProt Q99675 1-332)
chain: MAAVFLVTLYEYSPLFYIAVVFTCFIVTTGLVLGWFGWDVPVILRNSEETQFSTRVFKKQMRQVKNPFGLEITNPSSASITTGITLTTDCLEDSLLTCYWGCSVQKLYEALQKHVYCFRISTPQALEDALYSEYLYQEQYFIKKDSKEEIYCQLPRDTKIEDFGTVPRSRYPLVALLTLADEDDREIYDIISMVSVIHIPDRTYKLSCRILYQYLLLAQGQFHDLKQLFMSANNNFTPSNNSSSEEKNTDRSLLEKVGLSESEVEPSEENSKDCVVCQNGTVNWVLLPCRHTCLCDGCVKYFQQCPMCRQFVQESFALCSQKEQDKDKPKTL
B6: GLuc1-RNF152 (enzyme, UniProt Q8N8N0 1-203)
chain: METLSQDSLLECQICFNYYSPRRRPKLLDCKHTCCSVCLQQMRTSQKDVRCPWCRGVTKLPPGFSVSQLPDDPEVLAVIAIPHTSEHTPVFIKLPSNGCYMLPLPISKERALLPGDMGCRLLPGSQQKSVTVVTIPAEQQPLQGGAPQEAVEEEQDRRGVVKSSTWSGVCTVILVACVLVFLLGIVLHNMSCISKRFTVISCG
B7: GLuc1-RNFT2 (enzyme, UniProt Q96EX2 1-444)
chain: MWLFTVNQVLRKMQRRHSSNTDNIPPERNRSQALSSEASVDEGGVFESLKAEAASPPALFSGLSGSLPTSSFPSSLVLGSSAGGGDVFIQMPASREEGGGRGEGGAYHHRQPHHHFHHGGHRGGSLLQHVGGDHRGHSEEGGDEQPGTPAPALSELKAVICWLQKGLPFILILLAKLCFQHKLGIAVCIGMASTFAYANSTLREQVSLKEKRSVLVILWILAFLAGNTLYVLYTFSSQQLYNSLIFLKPNLEMLDFFDLLWIVGIADFVLKYITIALKCLIVALPKIILAVKSKGKFYLVIEELSQLFRSLVPIQLWYKYIMGDDSSNSYFLGGVLIVLYSLCKSFDICGRVGGVRKALKLLCTSQNYGVRATGQQCTEAGDICAICQAEFREPLILLCQHVFCEECLCLWLDRERTCPLCRSVAVDTLRCWKDGATSAHFQVY
B8: GLuc1-AREL1 (enzyme, UniProt O15033 1-823)
chain: MFYVIGGITVSVVAFFFTIKFLFELAARVVSFLQNEDRERRGDRTIYDYVRGNYLDPRSCKVSWDWKDPYEVGHSMAFRVHLFYKNGQPFPAHRPVGLRVHISHVELAVEIPVTQEVLQEPNSNVVKVAFTVRKAGRYEITVKLGGLNVAYSPYYKIFQPGMVVPSKTKIVCHFSTLVLTCGQPHTLQIVPRDEYDNPTNNSMSLRDEHNYTLSIHELGPQEEESTGVSFEKSVTSNRQTFQVFLRLTLHSRGCFHACISYQNQPINNGEFDIIVLSEDEKNIVERNVSTSGVSIYFEAYLYNATNCSSTPWHLPPMHMTSSQRRPSTAVDEEDEDSPSECHTPEKVKKPKKVYCYVSPKQFSVKEFYLKIIPWRLYTFRVCPGTKFSYLGPDPVHKLLTLVVDDGIQPPVELSCKERNILAATFIRSLHKNIGGSETFQDKVNFFQRELRQVHMKRPHSKVTLKVSRHALLESSLKATRNFSISDWSKNFEVVFQDEEALDWGGPRREWFELICKALFDTTNQLFTRFSDNNQALVHPNPNRPAHLRLKMYEFAGRLVGKCLYESSLGGAYKQLVRARFTRSFLAQIIGLRMHYKYFETDDPEFYKSKVCFILNNDMSEMELVFAEEKYNKSGQLDKVVELMTGGAQTPVTNANKIFYLNLLAQYRLASQVKEEVEHFLKGLNELVPENLLAIFDENELELLMCGTGDISVSDFKAHAVVVGGSWHFREKVMRWFWTVVSSLTQEELARLLQFTTGSSQLPPGGFAALCPSFQIIAAPTHSTLPTAHTCFNQLCLPTYDSYEEVHRMLQLAISEGCEGFGML
B9: GLuc1-RNF34 (enzyme, UniProt Q969K3 1-372)
chain: MKAGATSMWASCCGLLNEVMGTGAVRGQQSAFAGATGPFRFTPNPEFSTYPPAATEGPNIVCKACGLSFSVFRKKHVCCDCKKDFCSVCSVLQENLRRCSTCHLLQETAFQRPQLMRLKVKDLRQYLILRNIPIDTCREKEDLVDLVLCHHGLGSEDDMDTSSLNSSRSQTSSFFTRSFFSNYTAPSATMSSFQGELMDGDQTSRSGVPAQVQSEITSANTEDDDDDDDEDDDDEEENAEDRNPGLSKERVRASLSDLSSLDDVEGMSVRQLKEILARNFVNYSGCCEKWELVEKVNRLYKENEENQKSYGERLQLQDEEDDSLCRICMDAVIDCVLLECGHMVTCTKCGKRMSECPICRQYVVRAVHVFKS
B10: GLuc1-MARCH10 (enzyme, UniProt Q8NA82 1-808)
chain: MLHDARDRQKFFSDVQYLRDMQHKVDSEYQACLRRQEYRRDPNEKKRDQFWGQETSFERSRFSSRSSSKQSSSEEDALTEPRSSIKISAFKCDSKLPAIDQTSVKQKHKSTMTVRKAEKVDPSEPSPADQAPMVLLRKRKPNLRRFTVSPESHSPRASGDRSRQKQQWPAKVPVPRGADQVVQQEGLMCNTKLKRPNQERRNLVPSSQPMTENAPDRAKKGDPSAPSQSELHPALSQAFQGKNSPQVLSEFSGPPLTPTTVGGPRKASFRFRDEDFYSILSLNSRRESDDTEEETQSEECLWVGVRSPCSPSHHKRSRFGGTSTPQAKNKNFEENAENCRGHSSRRSEPSHGSLRISNAMEPATERPSAGQRLSQDPGLPDRESATEKDRGGSENAKKSPLSWDTKSEPRQEVGVNAENVWSDCISVEHRPGTHDSEGYWKDYLNSSQNSLDYFISGRPISPRSSVNSSYNPPASFMHSALRDDIPVDLSMSSTSVHSSDSEGNSGFHVCQPLSPIRNRTPFASAENHNYFPVNSAHEFAVREAEDTTLTSQPQGAPLYTDLLLNPQGNLSLVDSSSSSPSRMNSEGHLHVSGSLQENTPFTFFAVSHFPNQNDNGSRMAASGFTDEKETSKIKADPEKLKKLQESLLEEDSEEEGDLCRICQIAGGSPSNPLLEPCGCVGSLQFVHQECLKKWLKVKITSGADLGAVKTCEMCKQGLLVDLGDFNMIEFYQKHQQSQAQNELMNSGLYLVLLLHLYEQRFAELMRLNHNQVERERLSRNYPQPRTEENENSELGDGNEGSISQSQVV

What follows are molecules tested against HCV NS2 (native, from J6/JFH HCV RNA) (hepatitis C virus (J6/JFH)) (UniProt P26660) (assay: co-IP; IP with anti-NS2 antibody or IgG control from membrane fractions of Huh7.5.1 cells 72 hr after transfection with HCV RNA; cells treated with 1 mM DSP crosslinker before lysis; blots for MARCH8, MARCH10, NS2).
In the case of B1, the binding is reported as “binds”.

These molecules were tested against GLuc2-NS2 (HCV NS2 protein derived from the J6/JFH genome, fused to a Gaussia luciferase fragment) (hepatitis C virus (J6/JFH)) (UniProt P26660) (assay: split reporter; HT-GPCA (Gaussia princeps split-luciferase complementation): GLuc1-UPS (prey) and GLuc2-NS2 (bait) transfected pairwise into 293T cells, luciferase at 24 hr; primary screen (RLU, boxplot) and secondary screen (NLR, Z score)).
“GLuc1-RNF26 (from UniProt Q9BY78 1-433) (enzyme)” was tested, and the binding was “binds”.
With “GLuc1-RNA175 (from UniProt Q8N4F7 1-328) (enzyme)” the binding was “binds”.
“GLuc1-SYV1 (from UniProt Q86TM6 1-617) (enzyme)” was tested, and the binding was “binds”.
With “GLuc1-RSPRY1 (from UniProt Q96DX4 17-576) (enzyme)” the binding was “binds”.

Target: GLuc2-NS2 (HCV NS2 protein derived from the J6/JFH genome, fused to a Gaussia luciferase fragment) (hepatitis C virus (J6/JFH)) (UniProt P26660)
Assay: as above
Remark: another data set of the same source
B2 was tested, and the binding was “binds”.
B3 was tested, and the binding was “binds”.
B4 was tested, and the binding was “binds”.
For B5, the binding was “binds”.
In the case of B6, the binding is reported as “binds”.
B7 was tested, and the binding was “binds”.
For B8, the binding was “binds”.
In the case of B9, the binding is reported as “binds”.
With B10 the binding was “no binding”.
